The values that follow come from publication PMC8424950.

Sequences of proteins named here, by UniProt entry; tags and fusion partners are left off. A change or cut given only in a name is not applied to a line headed by its entry.
UniProt Q9H3P7: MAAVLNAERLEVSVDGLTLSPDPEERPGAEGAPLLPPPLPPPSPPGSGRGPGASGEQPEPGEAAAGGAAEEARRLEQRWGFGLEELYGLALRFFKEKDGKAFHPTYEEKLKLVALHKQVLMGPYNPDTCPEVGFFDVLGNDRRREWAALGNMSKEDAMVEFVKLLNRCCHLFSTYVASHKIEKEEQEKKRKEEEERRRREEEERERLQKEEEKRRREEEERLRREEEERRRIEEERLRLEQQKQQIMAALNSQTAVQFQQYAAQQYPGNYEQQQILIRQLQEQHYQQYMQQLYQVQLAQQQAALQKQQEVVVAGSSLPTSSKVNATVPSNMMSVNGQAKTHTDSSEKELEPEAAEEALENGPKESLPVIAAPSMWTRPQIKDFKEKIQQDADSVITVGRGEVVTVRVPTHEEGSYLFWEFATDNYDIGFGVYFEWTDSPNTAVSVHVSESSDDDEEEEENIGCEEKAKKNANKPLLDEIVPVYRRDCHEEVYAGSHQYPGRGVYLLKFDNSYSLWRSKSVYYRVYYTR
UniProt Q8N6T3: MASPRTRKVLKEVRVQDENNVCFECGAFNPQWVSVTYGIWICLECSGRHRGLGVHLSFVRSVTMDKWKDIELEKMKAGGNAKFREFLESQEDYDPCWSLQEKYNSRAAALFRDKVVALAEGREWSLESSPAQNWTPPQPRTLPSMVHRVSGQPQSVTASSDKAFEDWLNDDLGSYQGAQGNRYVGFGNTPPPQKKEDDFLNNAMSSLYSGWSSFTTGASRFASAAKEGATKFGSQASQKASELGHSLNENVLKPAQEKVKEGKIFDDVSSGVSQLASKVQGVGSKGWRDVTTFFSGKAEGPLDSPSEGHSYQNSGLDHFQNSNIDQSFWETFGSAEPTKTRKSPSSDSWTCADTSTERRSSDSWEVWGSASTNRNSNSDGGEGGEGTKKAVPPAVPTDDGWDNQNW
UniProt Q9NP61: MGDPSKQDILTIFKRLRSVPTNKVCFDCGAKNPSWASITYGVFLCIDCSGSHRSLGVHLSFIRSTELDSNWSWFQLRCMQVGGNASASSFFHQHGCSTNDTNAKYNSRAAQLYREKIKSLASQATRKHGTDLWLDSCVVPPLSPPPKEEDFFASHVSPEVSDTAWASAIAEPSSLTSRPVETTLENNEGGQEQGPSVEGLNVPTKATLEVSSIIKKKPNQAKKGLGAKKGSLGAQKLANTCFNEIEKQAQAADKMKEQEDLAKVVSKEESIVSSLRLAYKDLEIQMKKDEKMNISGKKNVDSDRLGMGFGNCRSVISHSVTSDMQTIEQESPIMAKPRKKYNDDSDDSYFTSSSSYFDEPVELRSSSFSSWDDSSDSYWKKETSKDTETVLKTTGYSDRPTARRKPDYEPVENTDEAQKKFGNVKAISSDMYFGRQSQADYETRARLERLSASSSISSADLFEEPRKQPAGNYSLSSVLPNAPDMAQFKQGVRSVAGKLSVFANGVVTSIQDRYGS
UniProt P13861: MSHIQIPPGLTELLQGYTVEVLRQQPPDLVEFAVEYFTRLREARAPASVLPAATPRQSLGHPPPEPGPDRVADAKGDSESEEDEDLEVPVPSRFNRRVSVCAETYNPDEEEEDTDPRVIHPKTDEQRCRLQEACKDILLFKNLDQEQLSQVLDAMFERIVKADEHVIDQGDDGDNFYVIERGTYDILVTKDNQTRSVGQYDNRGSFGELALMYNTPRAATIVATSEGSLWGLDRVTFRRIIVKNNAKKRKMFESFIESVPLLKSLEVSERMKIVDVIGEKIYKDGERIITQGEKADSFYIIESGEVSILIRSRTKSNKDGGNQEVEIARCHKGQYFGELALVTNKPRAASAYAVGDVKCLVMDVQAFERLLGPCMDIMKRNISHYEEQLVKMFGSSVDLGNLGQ
UniProt Q8N6H7: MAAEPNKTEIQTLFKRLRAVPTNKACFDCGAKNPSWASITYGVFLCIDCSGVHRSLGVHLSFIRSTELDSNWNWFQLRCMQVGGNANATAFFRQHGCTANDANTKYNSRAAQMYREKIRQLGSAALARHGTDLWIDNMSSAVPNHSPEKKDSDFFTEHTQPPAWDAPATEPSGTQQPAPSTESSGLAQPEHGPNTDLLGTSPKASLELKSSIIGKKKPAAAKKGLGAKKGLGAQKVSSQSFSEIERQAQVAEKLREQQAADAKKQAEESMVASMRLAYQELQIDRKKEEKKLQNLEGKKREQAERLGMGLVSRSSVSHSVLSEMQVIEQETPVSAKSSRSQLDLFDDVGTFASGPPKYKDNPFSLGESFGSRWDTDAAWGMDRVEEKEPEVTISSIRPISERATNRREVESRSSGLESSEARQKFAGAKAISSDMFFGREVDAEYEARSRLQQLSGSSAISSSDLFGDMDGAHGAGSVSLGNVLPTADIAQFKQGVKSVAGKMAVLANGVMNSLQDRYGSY
UniProt P84077: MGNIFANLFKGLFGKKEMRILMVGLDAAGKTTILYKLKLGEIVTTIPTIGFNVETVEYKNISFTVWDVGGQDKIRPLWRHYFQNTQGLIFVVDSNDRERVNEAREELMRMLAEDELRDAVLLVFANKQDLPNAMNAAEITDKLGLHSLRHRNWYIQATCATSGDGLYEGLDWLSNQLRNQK

No constants are given. Whether binding was seen depends on the method and setting. For some assays here: Binding seen in cells or lysates may run through a third protein. Some binding calls cover weakened binding; strength is not graded here. For some assays here: Sequences can lack the tags named with a protein.

The target of assay [1] is T1, KDELR1-Cub-LexA-VP16 (human) (UniProt P24390).
T1 sequence: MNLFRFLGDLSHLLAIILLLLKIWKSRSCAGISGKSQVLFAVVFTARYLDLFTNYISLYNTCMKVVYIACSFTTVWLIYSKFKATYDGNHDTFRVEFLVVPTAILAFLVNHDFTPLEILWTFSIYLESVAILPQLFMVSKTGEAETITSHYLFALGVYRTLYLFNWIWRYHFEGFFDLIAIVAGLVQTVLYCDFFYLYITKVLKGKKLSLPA
Kind of assay: two-hybrid; split-ubiquitin membrane yeast two-hybrid (MYTH), NMY51 yeast; KDELR1-Cub-LexA-VP16 bait, NubG-HA preys; growth on QDO plates with X-α-Gal.

The target in the next assay is T2, KDELR1-myc-cYFP (human) (UniProt P24390).
T2 sequence: T1 sequence
The assay can be described thus: split reporter; split-YFP: nYFP-3xFLAG-ACBD3 and KDELR1-myc-cYFP co-transfected into HeLa for 18 h, confocal microscopy; single plasmids as negative controls.

Assay [2] deals with T3, KDELR1-mCherry (human) (UniProt P24390).
T3 sequence: T1 sequence
The assay can be described thus: co-IP; anti-RFP agarose beads, 4 h at 4°C, on lysates (20 mM HEPES pH 7.4, 100 mM NaCl, 2 mM DDM + 0.02% CHS) of HeLa cells with KDELR1-mCherry or endogenously tagged KDELR1-3xFlag-mCherry; western blot; also done with ACBD3-depleted, ACBD3-KO and ACBD3 over-expressing cells. A general note: In western blotting, separated proteins are transferred to a membrane and probed.

The target of a further assay is myc-ACBD3 (human) (UniProt Q9H3P7). Kind of assay: co-IP; myc-trap agarose beads on lysates of HeLa co-transfected with KDELR1-mCherry and myc-ACBD3, ARFGAP1-myc or ARFGAP3-myc; western blot.
The target of assay [3] is T3, KDELR1-mCherry (human). Kind of assay: co-IP; HeLa co-transfected with KDELR1-mCherry and hGH-GFP-myc or hGH-GFP-myc-KDEL, treated with DSP crosslinker (2 mM) in PBS at 37 °C for 30 min before lysis; anti-RFP agarose beads; western blot.
The target of a further assay is ArfGAP1-myc (human) (UniProt Q8N6T3). Kind of assay: co-IP; myc-trap agarose beads on lysates of HeLa co-transfected with KDELR1-mCherry and myc-ACBD3, ARFGAP1-myc or ARFGAP3-myc; western blot.
Another assay concerns the target ArfGAP3-myc (human) (UniProt Q9NP61). Described as above.
A further assay addresses PKA-RIIα-EGFP (UniProt P13861). Kind of assay: co-IP; PKA subunits fused to EGFP expressed in HeLa; ACBD3 detected in the precipitates; beads not named for this experiment (anti-GFP agarose beads are listed in the methods).

As for “NubG-HA-ARFGAP3 (from UniProt Q9NP61 1-516)”, the binding result in assay [1] is listed as “binds”.

On to “nYFP-3xFLAG-ACBD3 (from UniProt Q9H3P7 1-528)”, for which the binding result with KDELR1-myc-cYFP (human) is listed as “binds”.

As for “FLAG-ACBD3 FL (from UniProt Q9H3P7 1-528)”, the binding entry in the assay with KDELR1-mCherry (human) [2] is “binds”.

“NubG-HA-ACBD3 (from UniProt Q9H3P7 1-528)”: in assay [1], the binding result is “binds”.

For “FLAG-GOLD domain (from UniProt Q9H3P7 384-526) (domain or fragment)”, the binding result with KDELR1-mCherry (human) [2] is “binds”.

With “ArfGAP1 (endogenous) (from UniProt Q8N6T3 1-406)”, the binding result with myc-ACBD3 (human) is “no binding”; in the assay with KDELR1-mCherry (human) [3], “binds”; with KDELR1-mCherry (human) [2], “binds”.

With “NubG-HA-ARFGAP2 (from UniProt Q8N6H7 1-521)”, the binding entry in assay [1] is given as “no binding”.

Regarding “ACBD3 (endogenous) (from UniProt Q9H3P7 1-528)”, the binding result with ArfGAP1-myc (human) is “no binding”; with ArfGAP3-myc (human), “no binding”; in the assay with KDELR1-mCherry (human) [3], “binds”; in the assay with PKA-RIIα-EGFP, “binds”; in the assay with KDELR1-mCherry (human) [2] it was “binds”.

Regarding “ArfGAP3 (endogenous) (from UniProt Q9NP61 1-516)”, the figures for the binding entry with myc-ACBD3 (human), with KDELR1-mCherry (human) [3] and in the assay with KDELR1-mCherry (human) [2] were “no binding”, “binds” and “binds”, respectively.

For the substance “Arf1 (endogenous) (from UniProt P84077 1-181)”, the binding entry with ArfGAP1-myc (human) was “binds”; with myc-ACBD3 (human), “no binding”; in the assay with ArfGAP3-myc (human), “no binding”; with KDELR1-mCherry (human) [3], “binds”; with KDELR1-mCherry (human) [2] it was “binds”.

For the substance “NubG-HA-ARFGAP1 (from UniProt Q8N6T3 1-406)”, in assay [1], the binding entry is listed as “binds”.
